# Measured values from the supplement of paper PMC8728848.
# Some of the results follow.
# B1: AT1G15820(2) (Arabidopsis thaliana), Q9LMQ2 (protein)
# chain: MAMAVSGAVLSGLGSSFLTGGKRGATALASGVGTGAQRVGRKTLIVAAAAAQPKKSWIPAVKGGGNFLDPEWLDGSLPGDFGFDPLGLGKDPAFLKWYREAELIHGRWAMAAVLGIFVGQAWSGVAWFEAGAQPDAIAPFSFGSLLGTQLLLMGWVESKRWVDFFNPDSQSVEWATPWSKTAENFANYTGDQGYPGGRFFDPLGLAGKNRDGVYEPDFEKLERLKLAEIKHSRLAMVAMLIFYFEAGQGKTPLGALGL
# Legend:
# Assay in all cases: glycan array binding signal (z-score within array); higher = stronger binding
# Conditions in all cases: glycan notation: IUPAC condensed, linker removed
# Neu5Ac(a2-6)Gal = biological target: Neu5Ac(a2-6)Gal
# Method in brief: (§1)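 The binding signal is a Z-score computed within each array. Data were drawn from 3228 arrays in the Consortium for Functional Glycomics database, restricted to those with a known protein sequence. Scores were averaged over arrays of the same protein sequence at different concentrations or buffers, and over linkers, and negative values can be taken as non-binding.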
# [1] = biological target: Neu5Ac(a2-6)Gal(b1-3)GlcNAc(b1-3)[Gal(b1-4)GlcNAc(b1-6)]Gal(b1-4)Glc
# Method in brief: as §1
# Neu5Ac(a2-6)Gal(b1-4)Glc = biological target: Neu5Ac(a2-6)Gal(b1-4)Glc
# Method in brief: as §1
# [2] = biological target: Neu5Ac(a2-6)Gal(b1-4)GlcNAc
# Method in brief: as §1
# [3] = biological target: Neu5Ac(a2-6)Gal(b1-4)GlcNAc(b1-2)Man
# Method in brief: as §1
# [4] = biological target: Neu5Ac(a2-6)Gal(b1-4)GlcNAc(b1-2)Man(a1-3)Man(b1-4)GlcNAc(b1-4)GlcNAc
# Method in brief: as §1
# [5] = biological target: Neu5Ac(a2-6)Gal(b1-4)GlcNAc(b1-2)Man(a1-3)[Gal(b1-4)GlcNAc(b1-2)Man(a1-6)]Man(b1-4)GlcNAc(b1-4)GlcNAc
# Method in brief: as §1
# [6] = biological target: Neu5Ac(a2-6)Gal(b1-4)GlcNAc(b1-2)Man(a1-3)[GlcNAc(b1-2)Man(a1-6)]Man(b1-4)GlcNAc(b1-4)GlcNAc
# Method in brief: as §1
# [7] = biological target: Neu5Ac(a2-6)Gal(b1-4)GlcNAc(b1-2)Man(a1-3)[GlcNAc(b1-4)][Neu5Ac(a2-6)Gal(b1-4)GlcNAc(b1-2)Man(a1-6)]Man(b1-4)GlcNAc(b1-4)GlcNAc
# Method in brief: as §1
# [8] = biological target: Neu5Ac(a2-6)Gal(b1-4)GlcNAc(b1-2)Man(a1-3)[Man(a1-6)]Man(b1-4)GlcNAc(b1-4)GlcNAc
# Method in brief: as §1
# [9] = biological target: Neu5Ac(a2-6)Gal(b1-4)GlcNAc(b1-2)Man(a1-3)[Neu5Ac(a2-3)Gal(b1-4)GlcNAc(b1-2)Man(a1-6)]Man(b1-4)GlcNAc(b1-4)GlcNAc
# Method in brief: as §1
# [10] = biological target: Neu5Ac(a2-6)Gal(b1-4)GlcNAc(b1-2)Man(a1-3)[Neu5Ac(a2-6)Gal(b1-4)GlcNAc(b1-2)Man(a1-6)]Man(b1-4)GlcNAc(b1-4)GlcNAc
# Method in brief: as §1
# [11] = biological target: Neu5Ac(a2-6)Gal(b1-4)GlcNAc(b1-2)Man(a1-3)[Neu5Ac(a2-6)Gal(b1-4)GlcNAc(b1-2)Man(a1-6)]Man(b1-4)GlcNAc(b1-4)[Fuc(a1-6)]GlcNAc
# Method in brief: as §1
# [12] = biological target: Neu5Ac(a2-6)Gal(b1-4)GlcNAc(b1-2)Man(a1-6)Man(b1-4)GlcNAc(b1-4)GlcNAc
# Method in brief: as §1
# [13] = biological target: Neu5Ac(a2-6)Gal(b1-4)GlcNAc(b1-2)Man(a1-6)[Gal(b1-4)GlcNAc(b1-2)Man(a1-3)]Man(b1-4)GlcNAc(b1-4)GlcNAc
# Method in brief: as §1
# [14] = biological target: Neu5Ac(a2-6)Gal(b1-4)GlcNAc(b1-2)Man(a1-6)[GlcNAc(b1-2)Man(a1-3)]Man(b1-4)GlcNAc(b1-4)GlcNAc
# Method in brief: as §1
# [15] = biological target: Neu5Ac(a2-6)Gal(b1-4)GlcNAc(b1-2)Man(a1-6)[Man(a1-3)]Man(b1-4)GlcNAc(b1-4)GlcNAc
# Method in brief: as §1
# [16] = biological target: Neu5Ac(a2-6)Gal(b1-4)GlcNAc(b1-2)[Neu5Ac(a2-6)Gal(b1-4)GlcNAc(b1-4)]Man(a1-3)[GlcNAc(b1-4)][Neu5Ac(a2-6)Gal(b1-4)GlcNAc(b1-2)[Neu5Ac(a2-6)Gal(b1-4)GlcNAc(b1-6)]Man(a1-6)]Man(b1-4)GlcNAc(b1-4)GlcNAc
# Method in brief: as §1
# [17] = biological target: Neu5Ac(a2-6)Gal(b1-4)GlcNAc(b1-2)[Neu5Ac(a2-6)Gal(b1-4)GlcNAc(b1-4)]Man(a1-3)[GlcNAc(b1-4)][Neu5Ac(a2-6)Gal(b1-4)GlcNAc(b1-4)Man(a1-6)]Man(b1-4)GlcNAc(b1-4)GlcNAc
# Method in brief: as §1
# [18] = biological target: Neu5Ac(a2-6)Gal(b1-4)GlcNAc(b1-2)[Neu5Ac(a2-6)Gal(b1-4)GlcNAc(b1-6)]Man(a1-6)[Neu5Ac(a2-6)Gal(b1-4)GlcNAc(b1-2)Man(a1-3)][GlcNAc(b1-4)]Man(b1-4)GlcNAc(b1-4)GlcNAc
# Method in brief: as §1
# [19] = biological target: Neu5Ac(a2-6)Gal(b1-4)GlcNAc(b1-3)Gal(b1-3)GlcNAc
# Method in brief: as §1
# [20] = biological target: Neu5Ac(a2-6)Gal(b1-4)GlcNAc(b1-3)Gal(b1-4)GlcNAc
# Method in brief: as §1
# [21] = biological target: Neu5Ac(a2-6)Gal(b1-4)GlcNAc(b1-3)Gal(b1-4)GlcNAc(b1-2)Man(a1-3)[Neu5Ac(a2-6)Gal(b1-4)GlcNAc(b1-3)Gal(b1-4)GlcNAc(b1-2)Man(a1-6)]GalNAc
# Method in brief: as §1
# [22] = biological target: Neu5Ac(a2-6)Gal(b1-4)GlcNAc(b1-3)Gal(b1-4)GlcNAc(b1-3)Gal(b1-4)GlcNAc
# Method in brief: as §1
# [23] = biological target: Neu5Ac(a2-6)Gal(b1-4)GlcNAc(b1-3)Gal(b1-4)GlcNAc(b1-3)Gal(b1-4)GlcNAc(b1-2)Man(a1-3)[Neu5Ac(a2-6)Gal(b1-4)GlcNAc(b1-3)Gal(b1-4)GlcNAc(b1-3)Gal(b1-4)GlcNAc(b1-2)Man(a1-6)]GalNAc
# Method in brief: as §1
# [24] = biological target: Neu5Ac(a2-6)Gal(b1-4)GlcNAc(b1-3)Gal(b1-4)GlcNAc(b1-3)GalNAc
# Method in brief: as §1
# [25] = biological target: Neu5Ac(a2-6)Gal(b1-4)GlcNAc(b1-3)Gal(b1-4)GlcNAc(b1-3)[Neu5Ac(a2-6)Gal(b1-4)GlcNAc(b1-3)Gal(b1-4)GlcNAc(b1-6)]GalNAc
# Method in brief: as §1
# [26] = biological target: Neu5Ac(a2-6)Gal(b1-4)GlcNAc(b1-3)Gal(b1-4)GlcNAc(b1-6)[Gal(b1-3)]GalNAc
# Method in brief: as §1
# [27] = biological target: Neu5Ac(a2-6)Gal(b1-4)GlcNAc(b1-3)Gal(b1-4)[Fuc(a1-3)]GlcNAc(b1-3)Gal(b1-4)[Fuc(a1-3)]GlcNAc
# Method in brief: as §1
# [28] = biological target: Neu5Ac(a2-6)Gal(b1-4)GlcNAc(b1-3)GalNAc
# Method in brief: as §1
# [29] = biological target: Neu5Ac(a2-6)Gal(b1-4)GlcNAc(b1-3)[Neu5Ac(a2-6)Gal(b1-4)GlcNAc(b1-6)]GalNAc
# Method in brief: as §1
# [30] = biological target: Neu5Ac(a2-6)Gal(b1-4)GlcNAc(b1-6)GalNAc
# Method in brief: as §1
# [31] = biological target: Neu5Ac(a2-6)Gal(b1-4)GlcNAc(b1-6)[Gal(b1-3)GlcNAc(b1-3)]Gal(b1-4)Glc
# Method in brief: as §1
# [32] = biological target: Neu5Ac(a2-6)Gal(b1-4)GlcNAc(b1-6)[Gal(b1-3)]GalNAc
# Method in brief: as §1
# [33] = biological target: Neu5Ac(a2-6)Gal(b1-4)GlcNAc6S
# Method in brief: as §1
# Neu5Ac(a2-6)GalNAc = biological target: Neu5Ac(a2-6)GalNAc
# Method in brief: as §1
# [34] = biological target: Neu5Ac(a2-6)GalNAc(b1-4)GlcNAc
# Method in brief: as §1
# [35] = biological target: Neu5Ac(a2-6)GalNAc(b1-4)GlcNAc6S
# Method in brief: as §1
binder,measurement,setting,value
B1,glycan array binding signal (z-score),Neu5Ac(a2-6)Gal,0.144
same,glycan array binding signal (z-score),[1],-0.209
same,glycan array binding signal (z-score),Neu5Ac(a2-6)Gal(b1-4)Glc,0.018
same,glycan array binding signal (z-score),[2],-0.432
same,glycan array binding signal (z-score),[3],-0.257
same,glycan array binding signal (z-score),[4],-0.048
same,glycan array binding signal (z-score),[5],0.245
same,glycan array binding signal (z-score),[6],-0.006
same,glycan array binding signal (z-score),[7],0.173
same,glycan array binding signal (z-score),[8],-0.251
same,glycan array binding signal (z-score),[9],0.033
same,glycan array binding signal (z-score),[10],0.19
same,glycan array binding signal (z-score),[11],0.27
same,glycan array binding signal (z-score),[12],0.122
same,glycan array binding signal (z-score),[13],-0.468
same,glycan array binding signal (z-score),[14],-0.457
same,glycan array binding signal (z-score),[15],-0.545
same,glycan array binding signal (z-score),[16],-0.676
same,glycan array binding signal (z-score),[17],-0.209
same,glycan array binding signal (z-score),[18],-0.477
same,glycan array binding signal (z-score),[19],0.051
same,glycan array binding signal (z-score),[20],-0.197
same,glycan array binding signal (z-score),[21],-0.348
same,glycan array binding signal (z-score),[22],0.049
same,glycan array binding signal (z-score),[23],1.31
same,glycan array binding signal (z-score),[24],-0.555
same,glycan array binding signal (z-score),[25],0.328
same,glycan array binding signal (z-score),[26],-0.477
same,glycan array binding signal (z-score),[27],-0.214
same,glycan array binding signal (z-score),[28],-0.453
same,glycan array binding signal (z-score),[29],-0.288
same,glycan array binding signal (z-score),[30],-0.157
same,glycan array binding signal (z-score),[31],0.114
same,glycan array binding signal (z-score),[32],-0.529
same,glycan array binding signal (z-score),[33],-0.243
same,glycan array binding signal (z-score),Neu5Ac(a2-6)GalNAc,-0.107
same,glycan array binding signal (z-score),[34],-0.19
same,glycan array binding signal (z-score),[35],-0.363
